In paper PMC11149917, “Translational and Therapeutic Evaluation of RAS-GTP Inhibition by RMC-6236 in RAS-Driven Cancers” (Cancer Discovery, 2024):
Further values from the same series stand in other lists.

Test system: PRISM panel of 845 cancer cell lines
Experiment: PRISM assay
Assay type: cell-based, human
Protocol: The PRISM cell set comprised 845 cell lines representing more than 45 lineages (see Supplementary Table S1 for cell line information), which largely overlapped with the Cancer Cell Line Encyclopedia; https://portals.broadinstitute.org/ccle). Cell lines were grown in RPMI without phenol red and supplemented with 10% or 20% FBS for adherent and suspended lines, respectively. Parental cell lines were stably infected with a unique 24-nucleotide DNA barcode via lentiviral transduction and blasticidin selection. After selection, barcoded cell lines were expanded and subjected to quality control (Mycoplasma contamination test, an SNP test for confirming cell line identity, and barcode ID confirmation). Approved cell lines were then pooled (20–25 cell lines per pool) based on doubling time similarity and frozen in assay-ready vials.
RMC-6236 was added to 384-well plates at 8-point concentration with 3-fold dilutions in triplicate. These assay-ready plates were then seeded with the thawed cell line pools. Adherent cell pools were plated at 1,250 cells per well, whereas suspension and mixed adherent/suspension pools were plated at 2,000 cells per well. Treated cells were incubated for 5 days, and then lysed. Lysate plates were collapsed together prior to barcode amplification and detection.
Each cell line's unique barcode is located in the 3′UTR of the blasticidin-resistance gene and therefore is expressed as mRNA. Total mRNA was captured using magnetic particles that recognize polyA sequences. Captured mRNA was reverse-transcribed into cDNA and then the sequence containing the unique PRISM barcode was amplified using PCR. Finally, Luminex beads that recognize the specific barcode sequences in the cell set were hybridized to the PCR products and detected using a Luminex scanner which reports the signal as a median fluorescent intensity (MFI).
• Each detection well contained 10 control barcodes in increasing abundances as spike-in controls. For each plate, we first create a reference profile by calculating the median of the log2(MFI) values across negative control wells for each of these spiked-in barcodes. • For each well, a monotonic smooth p-spline was fitted to map the spike-in control levels to the reference profile. Next, we transform the log2(MFI) for each cell barcode using the fitted spline to allow well-to-well comparisons by correcting for amplification and detection artifacts. • Next, the separability between negative and positive control treatments was assessed. In particular, we calculated the error rate of the optimum simple threshold classifier between the control samples for each cell line and plate combination. The error rate is a measure of the overlap of the two control sets and was defined as error = (FP + FN)/n, where FP is false positives, FN is false negatives, and n is the total number of controls. A threshold was set between the distributions of positive and negative control log2(MFI) values (with everything below the threshold said to be positive and above said to be negative) such that this value is minimized. Additionally, we also calculated the dynamic range of each cell line. […] Additionally, any cell line that had less than 2 passing replicates was also omitted for the sake of reproducibility. Finally, we computed viability by normalizing with respect to the median negative control for each plate.
For every gene with nonsilent mutations in at least four cell lines, we compared the AUC values between cells with and without those mutations using a t test. This analysis was carried out for (i) the full data set; (ii) excluding cell lines with nonsilent KRAS mutations; and (iii) excluding cell lines that have either KRAS or NRAS nonsilent mutations.

CCn1c(-c2cc(N3CCN(C)CC3)cnc2[C@H](C)OC)c2c3cc(ccc31)-c1csc(n1)C[C@H](NC(=O)[C@H]1C[C@@H]1C)C(=O)N1CCC[C@H](N1)C(=O)OCC(C)(C)C2 [RMC-6236]
RMC-6236: RevMed PRISM: AUC (EGI1_BILIARY_TRACT, KRAS p.G12D): 0.441
RMC-6236: RevMed PRISM: AUC (EKVX_LUNG): 0.752
RMC-6236: RevMed PRISM: AUC (EM2_HAEMATOPOIETIC_AND_LYMPHOID_TISSUE): 0.557
RMC-6236: RevMed PRISM: AUC (EMTOKA_ENDOMETRIUM): 0.6623
RMC-6236: RevMed PRISM: AUC (ES2_OVARY): 0.8862
RMC-6236: RevMed PRISM: AUC (ESS1_ENDOMETRIUM): 0.6148
RMC-6236: RevMed PRISM: AUC (FLO1_OESOPHAGUS): 1
RMC-6236: RevMed PRISM: AUC (FTC133_THYROID): 0.7242
RMC-6236: RevMed PRISM: AUC (FTC238_THYROID): 1
RMC-6236: RevMed PRISM: AUC (G361_SKIN): 1
RMC-6236: RevMed PRISM: AUC (G415_BILIARY_TRACT, KRAS p.G13D): 0.6508
RMC-6236: RevMed PRISM: AUC (GAMG_CENTRAL_NERVOUS_SYSTEM): 0.7635
RMC-6236: RevMed PRISM: AUC (GB1_CENTRAL_NERVOUS_SYSTEM): 1
RMC-6236: RevMed PRISM: AUC (GCT_SOFT_TISSUE): 0.8928
RMC-6236: RevMed PRISM: AUC (GIMEN_AUTONOMIC_GANGLIA): 0.8496
RMC-6236: RevMed PRISM: AUC (GOS3_CENTRAL_NERVOUS_SYSTEM): 0.7506
RMC-6236: RevMed PRISM: AUC (GP2D_LARGE_INTESTINE, KRAS p.G12D): 0.6016
RMC-6236: RevMed PRISM: AUC (GSS_STOMACH): 0.7048
RMC-6236: RevMed PRISM: AUC (GSU_STOMACH, KRAS p.G12D): 0.296
RMC-6236: RevMed PRISM: AUC (H157_UPPER_AERODIGESTIVE_TRACT): 0.5376
RMC-6236: RevMed PRISM: AUC (H376_UPPER_AERODIGESTIVE_TRACT): 0.6121
RMC-6236: RevMed PRISM: AUC (H413_UPPER_AERODIGESTIVE_TRACT): 0.6014
RMC-6236: RevMed PRISM: AUC (HCA1_CERVIX): 0.6491
RMC-6236: RevMed PRISM: AUC (HCC15_LUNG, NRAS p.C186F, p.Q61K): 0.752
RMC-6236: RevMed PRISM: AUC (HCC33_LUNG): 1
RMC-6236: RevMed PRISM: AUC (HCC38_BREAST): 0.6233
RMC-6236: RevMed PRISM: AUC (HCC44_LUNG, KRAS p.G12C): 0.5816
RMC-6236: RevMed PRISM: AUC (HCC56_LARGE_INTESTINE, KRAS p.G12V): 0.2532
RMC-6236: RevMed PRISM: AUC (HCC95_LUNG): 0.6032
RMC-6236: RevMed PRISM: AUC (HCC515_LUNG, KRAS p.G13D): 0.906
RMC-6236: RevMed PRISM: AUC (HCC1143_BREAST): 0.6796
RMC-6236: RevMed PRISM: AUC (HCC1359_LUNG): 0.8757
RMC-6236: RevMed PRISM: AUC (HCC1395_BREAST): 0.7557
RMC-6236: RevMed PRISM: AUC (HCC1419_BREAST, HRAS p.R128W): 0.7992
RMC-6236: RevMed PRISM: AUC (HCC1428_BREAST): 0.8123
RMC-6236: RevMed PRISM: AUC (HCC1438_LUNG): 0.9283
RMC-6236: RevMed PRISM: AUC (HCC1806_BREAST): 0.8742
RMC-6236: RevMed PRISM: AUC (HCC1954_BREAST): 0.6911
RMC-6236: RevMed PRISM: AUC (HCC2108_LUNG, KRAS p.Q61H): 0.5828
RMC-6236: RevMed PRISM: AUC (HCC4006_LUNG): 0.5176
RMC-6236: RevMed PRISM: AUC (HDMYZ_HAEMATOPOIETIC_AND_LYMPHOID_TISSUE, NRAS p.G13D): 0.7306
RMC-6236: RevMed PRISM: AUC (HEC1B_ENDOMETRIUM, KRAS p.G12D): 0.615
RMC-6236: RevMed PRISM: AUC (HEC1_ENDOMETRIUM, KRAS p.G12D): 0.8171
RMC-6236: RevMed PRISM: AUC (HEC6_ENDOMETRIUM): 0.9233
RMC-6236: RevMed PRISM: AUC (HEC108_ENDOMETRIUM): 0.7701
RMC-6236: RevMed PRISM: AUC (HEL9217_HAEMATOPOIETIC_AND_LYMPHOID_TISSUE): 0.7653
RMC-6236: RevMed PRISM: AUC (HEL_HAEMATOPOIETIC_AND_LYMPHOID_TISSUE): 0.7938
RMC-6236: RevMed PRISM: AUC (HEP3B217_LIVER): 0.9272
RMC-6236: RevMed PRISM: AUC (HGC27_STOMACH): 0.8085
RMC-6236: RevMed PRISM: AUC (HH_HAEMATOPOIETIC_AND_LYMPHOID_TISSUE): 0.8642
RMC-6236: RevMed PRISM: AUC (HKGZCC_BILIARY_TRACT, KRAS p.Q61H): 0.4553
RMC-6236: RevMed PRISM: AUC (HLF_LIVER): 0.7353
RMC-6236: RevMed PRISM: AUC (HMC18_BREAST, KRAS p.G12V): 0.3209
RMC-6236: RevMed PRISM: AUC (HPAC_PANCREAS, KRAS p.G12D): 0.3943
RMC-6236: RevMed PRISM: AUC (HPAFII_PANCREAS, KRAS p.G12D): 0.337
RMC-6236: RevMed PRISM: AUC (HS294T_SKIN): 0.8481
RMC-6236: RevMed PRISM: AUC (HS683_CENTRAL_NERVOUS_SYSTEM): 0.7931
RMC-6236: RevMed PRISM: AUC (HS729_SOFT_TISSUE): 0.9268
RMC-6236: RevMed PRISM: AUC (HS766T_PANCREAS, KRAS p.Q61H): 0.4003
RMC-6236: RevMed PRISM: AUC (HS944T_SKIN, NRAS p.Q61K): 0.4942
RMC-6236: RevMed PRISM: AUC (HSC1_SKIN): 0.6332
RMC-6236: RevMed PRISM: AUC (HSC2_UPPER_AERODIGESTIVE_TRACT): 0.6438
RMC-6236: RevMed PRISM: AUC (HSC3_UPPER_AERODIGESTIVE_TRACT): 0.5856
RMC-6236: RevMed PRISM: AUC (HSKTC_OVARY): 0.9967
RMC-6236: RevMed PRISM: AUC (HT3_CERVIX): 0.6913
RMC-6236: RevMed PRISM: AUC (HT144_SKIN): 0.8589
RMC-6236: RevMed PRISM: AUC (HT1197_URINARY_TRACT, NRAS p.Q61R): 0.8356
RMC-6236: RevMed PRISM: AUC (HT1376_URINARY_TRACT): 0.7104
RMC-6236: RevMed PRISM: AUC (HUCCT1_BILIARY_TRACT, KRAS p.G12D): 0.4281
RMC-6236: RevMed PRISM: AUC (HUG1N_STOMACH): 0.8989
RMC-6236: RevMed PRISM: AUC (HUH6_LIVER): 0.8747
RMC-6236: RevMed PRISM: AUC (HUH28_BILIARY_TRACT): 0.9593
RMC-6236: RevMed PRISM: AUC (HUO9_BONE): 1
RMC-6236: RevMed PRISM: AUC (HUPT3_PANCREAS, KRAS p.G12R): 0.4399
RMC-6236: RevMed PRISM: AUC (HUPT4_PANCREAS, KRAS p.G12V): 0.3159
RMC-6236: RevMed PRISM: AUC (IALM_LUNG, KRAS p.G12C): 0.4472
RMC-6236: RevMed PRISM: AUC (ICC8_BILIARY_TRACT): 0.8664
RMC-6236: RevMed PRISM: AUC (ICC10_BILIARY_TRACT): 0.4792
RMC-6236: RevMed PRISM: AUC (ICC137_BILIARY_TRACT): 0.6956
RMC-6236: RevMed PRISM: AUC (IGR1_SKIN): 0.9058
RMC-6236: RevMed PRISM: AUC (IGR37_SKIN): 1
RMC-6236: RevMed PRISM: AUC (IGROV1_OVARY): 0.8942
RMC-6236: RevMed PRISM: AUC (IM95_STOMACH): 0.6295
RMC-6236: RevMed PRISM: AUC (IPC298_SKIN, NRAS p.Q61L): 0.4786
RMC-6236: RevMed PRISM: AUC (ISTMES2_PLEURA): 0.9791
RMC-6236: RevMed PRISM: AUC (JEKO1_HAEMATOPOIETIC_AND_LYMPHOID_TISSUE): 0.917
RMC-6236: RevMed PRISM: AUC (JHH1_LIVER): 0.5417
RMC-6236: RevMed PRISM: AUC (JHH4_LIVER): 0.9202
RMC-6236: RevMed PRISM: AUC (JHH5_LIVER): 0.5324
RMC-6236: RevMed PRISM: AUC (JHH7_LIVER): 0.7752
RMC-6236: RevMed PRISM: AUC (JHOM1_OVARY): 0.8164
RMC-6236: RevMed PRISM: AUC (JHOS2_OVARY): 0.7954
RMC-6236: RevMed PRISM: AUC (JIMT1_BREAST): 0.7018
